Data taken from PubChem BioAssay AID504832 (National Center for Advancing Translational Sciences (NCATS), 2011).
Out of some 310,000 compounds screened, about 18,000 (5.8%) were called active. Inconclusive results, whose numbers are uncertain, are shown with a selection of clear calls. The call rests on the fitted dose curve; in most records, active means well fitted inhibition curve with a large enough effect; inconclusive means small, poorly fitted or top-dose-only effect, or another doubt; inactive means no such curve, though single readings can be large or run the other way. Potencies of inconclusive entries are left out as doubtful fits.

experiment: Primary qHTS for delayed death inhibitors of the malarial parasite plastid, 48 hour incubation; details: P. falciparum luciferase growth in erythrocytes; series mostly up to 28.7 µM
Procedure, shortened: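 Cell-based growth assay: transgenic P. falciparum expressing firefly luciferase, cultured in red cells within RPMI 1640 containing 0.5% w/v Albumax, 24 mM bicarbonate and gentamycin. A drop in luciferase activity indicates inhibition.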
Potency means the concentration at half of the fitted maximal effect; tags describe the fitted curve by direction and shape.

Row | SMILES | Potency
1 | CCCC(=O)Nc1ccccc1-c1nnn(CC(=O)Nc2ccc(OCC)cc2)n1 | inconclusive [inhibitor, partial curve]
2 | O=C(COc1ccccc1[N+](=O)[O-])N(Cc1ccccc1)c1ccccn1 | inconclusive [inhibitor, full curve, poor fit]
3 | CC1CCCCN1C(=S)NC(=O)c1cc(Br)ccc1Cl (configuration not stated) | inconclusive [inhibitor, single point]
4 | CC(C)CC(NC(=O)C1CCC(C)CC1)C(=O)Nc1cccnc1 (configuration not stated) | inconclusive [inhibitor, single point]
5 | CCN(CC)CCn1c2c(c(SCC(=O)Nc3ccc4c(c3)OCCO4)nc1=O)CCCC2 | inconclusive [inhibitor, single point]
6 | CN(Cc1ccccc1)c1nc2c(c(=O)n(C)c(=O)n2C)n1CCCc1ccccc1 | inconclusive [inhibitor, single point]
7 | COC(=O)c1cc2sccc2n1CC(=O)N1CCCc2ccccc21 | inconclusive [inhibitor, full curve, poor fit]
8 | C/C(Cn1nnc([N+](=O)[O-])n1)=N\NC(=O)c1ccccc1O | inconclusive [inhibitor, single point]
9 | CN(C)CC(=O)Nc1cc(C(F)(F)F)ccc1Cl | inactive
10 | O=C(OCCOc1cccc(Cl)c1)c1ccc2ncsc2c1 | inactive
11 | Cc1ccc(NC(=O)C2CCN(S(=O)(=O)c3ccc(N4CCCC4=O)cc3)CC2)cc1Cl | inconclusive [inhibitor, partial curve]
12 | CCn1nc(C)c(C(=O)Nc2cc(Oc3cc(C)cc(C)c3)cc([N+](=O)[O-])c2)c1C | inconclusive [inhibitor, partial curve, poor fit]
13 | FC(F)(F)c1cc(-c2ccccc2)nc(NCc2cccs2)n1 | inconclusive [inhibitor, partial curve, poor fit]
14 | COc1nc(NCc2cccnc2)nc(OC)n1 | inactive
15 | COc1ccc(N2CCN(C(=O)CCCN3C(=O)c4cccc5cccc(c45)C3=O)CC2)cc1 | inconclusive [inhibitor, partial curve, poor fit]
16 | O=C(CSc1nnnn1-c1cccc2c1CCCC2)N1CCCCC1 | inconclusive [inhibitor, partial curve, poor fit]
17 | O=C(O)COc1ccccc1/C=N/NC(=O)CSc1nnc(SCc2ccccc2)s1 | inactive
18 | CCCCn1c(C)cc2c(c1=O)C1O[C@](c3ccc(OC)cc3)(Cc3cc(OC)c(OC)cc31)O2 | inconclusive [inhibitor, partial curve, poor fit]
19 | Cc1ccc(C(=O)c2ccccc2C(=O)OCC(=O)N2CC(C)CC(C)C2)cc1 (configuration not stated) | active: 7.38 µM
20 | COc1cc2nc(N3CCN(C(=O)[C@H]4COc5ccccc5O4)CC3)nc(N)c2cc1OC | active: 3.7 µM
21 | COc1ccc(-c2cc3ccccc3n2CC(O)CN2CCOCC2)cc1 (configuration not stated) | inconclusive [inhibitor, partial curve]
22 | O=C(CSc1nnc(SCC(=O)c2ccco2)s1)c1ccco1 | inactive
23 | N=C1SCC(=O)N1c1ccccc1Cl | inactive
24 | CCOC(=O)C1=C(CNCCc2ccc(Cl)cc2)NC(=O)NC1c1ccc2c(c1)OCO2 (configuration not stated) | active: 7.38 µM

Row | SMILES | Potency
25 | COc1ccc(S(=O)(=O)NC(CC(=O)NCc2ccccc2OC)c2ccco2)cc1 (configuration not stated) | inconclusive [inhibitor, partial curve]
26 | Cc1cc(O)c(-c2cc(O)c(C)cc2O)cc1O | inconclusive [inhibitor, partial curve]
27 | COC(=O)c1sc(-c2cccs2)cc1NC(=O)/C=C/C(=O)O | inactive
28 | CCCCN(C(=O)c1ccc2c(c1)OCO2)c1c(N)n(CCCC)c(=O)[nH]c1=O | inconclusive [inhibitor, single point]
29 | Cc1nn(Cc2ccc(Cl)cc2Cl)c(Cl)c1/C=N/NC(=O)CNc1cccc(C(F)(F)F)c1 | inconclusive [inhibitor, single point]
30 | O=C(COC(=O)c1ccc(O)cc1)Nc1cc(C(F)(F)F)ccc1N1CCOCC1 | inactive
31 | CC1CCc2cc(F)ccc2N1C(=O)CSc1nnc2c(n1)[nH]c1ccc(F)cc12 (configuration not stated) | active: 1.04 µM
32 | Cc1oncc1C(=O)Nc1ccc(C(F)(F)F)cc1 | inconclusive [inhibitor, single point]
33 | O=C(NCc1cc(F)ccc1F)C1CCC(=O)N(C2CCCCCC2)C1 (configuration not stated) | inactive
34 | COc1ccc(CN2C(=O)c3ccccc3C(/C=N/OCc3ccc(Cl)cc3)C2=O)cc1 (configuration not stated) | inconclusive [inhibitor, partial curve, poor fit]
35 | Cc1ccc(S(=O)(=O)N2CCN(C(=O)CC(C)C)CC2)cc1 | inactive
36 | Cc1ccc(-c2nn(-c3ccccc3)cc2/C=N/n2c(-c3cccs3)n[nH]c2=S)cc1 | inconclusive [inhibitor, single point]
37 | CCOC(=O)c1cccc(NC(=O)CCc2nc(-c3ccc(C)cc3)no2)c1 | active: 11.7 µM
38 | N#C/C(=C\c1cccnc1)C(=O)Nc1ccc(SC(F)F)cc1 | inconclusive [inhibitor, single point]
39 | COc1cc(C(C(=O)NC2CCCC2)N(C(=O)Cc2cccs2)C2CC2)cc(OC)c1OC (configuration not stated) | inconclusive [inhibitor, single point]
40 | Cc1ccc(C)c2[nH]c(=O)c(CN(Cc3ccco3)C(=S)NCC3CCCO3)cc12 (configuration not stated) | inconclusive [inhibitor, single point]
41 | COc1ccccc1NS(=O)(=O)c1cc(NC(=O)C2CC2)ccc1N1CCOCC1 | inconclusive [inhibitor, single point]
42 | CCOC(=O)c1c(N)sc2c1CCN(Cc1ccccc1)C2 | active: 3.79 µM
43 | CC(=O)n1cc([C@H]2C=C(C(=O)Nc3ccccc3)O[C@@H](OCCCCO)C2)c2ccccc21 | active: 9.28 µM
44 | CC(C)(C)C(=O)OCCNc1nc(-c2ccccc2)nc2ccccc12 | inconclusive [inhibitor, single point]
45 | Cc1ccc2cc(CN(Cc3cccs3)Cc3nnnn3CC3CCCO3)c(=O)[nH]c2c1 (configuration not stated) | inconclusive [inhibitor, single point]
46 | O=C(NCCCCc1ccccc1)C1CC(c2cc(C(F)(F)F)cc(C(F)(F)F)c2)=NO1 (configuration not stated) | inactive
47 | COCC(C)NC(=O)c1ccccc1OC(C)=O (configuration not stated) | inactive
48 | CCOc1ccccc1CN1CCC(Oc2cccc(C(=O)NCCOC)c2)CC1 | inconclusive [inhibitor, partial curve, poor fit]

Row | SMILES | Potency
49 | CCCOc1ccc(C(=O)CCC(=O)Nc2ccc(N3CCN(C)CC3)cc2)cc1 | inconclusive [inhibitor, single point]
50 | C/C(=N/Nc1nc(C)c(C)s1)c1cccc([N+](=O)[O-])c1 | inconclusive [inhibitor, single point]
51 | CCOc1ccccc1/C=N/n1nnnc1N | inconclusive [inhibitor, full curve, poor fit]
52 | CNc1cc(C)nc(-n2nc(C)cc2C)n1 | active: 8.28 µM
53 | CC(C)(C)n1cnnc1Sc1ccc([N+](=O)[O-])cn1 | inconclusive [inhibitor, single point]
54 | O=C(c1cnn2c(C(F)(F)F)cc(-c3ccco3)nc12)N1CCc2ccccc2C1 | inconclusive [inhibitor, full curve, poor fit]
55 | COC(=O)CC1COc2ccccc2N1S(=O)(=O)c1ccc(Br)cc1 (configuration not stated) | inconclusive [inhibitor, single point]
56 | Cc1cccc(C)c1N1CCN(c2c(C)cccc2C)CC1 | inconclusive [inhibitor, single point]
57 | Cc1cc(C)cc(N(CCC#N)C(=O)CSc2ncnc3sccc23)c1 | active: 11.7 µM
58 | COc1cccc(CN(C)Cc2nc(Cc3ccccc3Cl)no2)c1 | inactive
59 | CCN(CC)C(=O)Oc1ccnc2cc(Cl)ccc12 | inactive
60 | CCn1c(SCC(=O)N2CCCC2)nc2c(c1=O)SC(C)C2 (configuration not stated) | inactive
61 | O=C(c1ccccc1)c1ccc(C(=O)N2CCOCC2)cc1 | inactive
62 | N#Cc1ccsc1NC(=O)CN1CCN(Cc2ccccc2)CC1 | inconclusive [inhibitor, single point]
63 | COc1ccc(/C=C(\NC(=O)c2ccccc2)C(=O)NCc2ccco2)cc1OC | inconclusive [inhibitor, single point]
64 | COc1ccc(OC)c(C(C(=O)NC2CCCCC2)N(Cc2ccco2)C(=O)c2ccccn2)c1 (configuration not stated) | inactive
65 | Cc1ccc(C(=O)NC2CCN(S(=O)(=O)c3ccccc3F)CC2)cc1 | inactive
66 | Cc1cc(C)n2nc(SCc3cccc(F)c3)nc2n1 | inactive
67 | C[N+](C)(C)CC(=O)N/N=C/c1c2ccccc2cc2ccccc12 | active: 9.28 µM
68 | CCOC(=O)c1ccc(NC(=O)c2cnccn2)cc1 | inactive
69 | Cc1ccc(-c2nc3ccccc3[nH]2)cc1NC(=O)c1ccc2c(c1)OCO2 | inconclusive [inhibitor, single point]
70 | Oc1ccc(Nc2nc(-c3cccs3)cs2)cc1 | inactive
71 | Cc1cc(-c2ccccc2)nc(N/N=C/c2ccc(O)cc2O)n1 | inconclusive [inhibitor, single point]
72 | Cc1cc2oc(=O)cc(CSc3nnc(C)n3N)c2cc1C(C)C | inconclusive [inhibitor, full curve, poor fit]
